Where “and” joins values, the source holds several entries; their conditions need not be identical. Equal entries are not always repeated. The inconclusive results got no clear call from the source; some entries with a clear call stand among them for comparison. Potencies beside an inconclusive call are fits to weak or partial responses and may not hold up. Calls of active or inactive are those of the source. The call rests on the fitted dose curve; in most records, active means well fitted curve in the direction sought with a large enough effect; inconclusive means small, poorly fitted or top-dose-only effect, or another doubt; inactive means no such curve, though single readings can be large; an effect the other way counts as inactive or inconclusive.
Columns and labels:
[1] = Viability qHTS for spleen associated tyrosine kinase inhibitor (SYKi) naive MV4-11 cells (AID 1963823); conditions: MV4-11 AML viability, CellTiter-Glo luminescence, 72 h; viability (% of control): at 45 µM (top of the series); further: nearly all actives have a fitted effect of over 40% in size
In short: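 Viability of MV4-11 AML cells lacking prior SYK inhibitor exposure is scored by CellTiter-Glo luminescence following 72 hr compound incubation at 37 C, 5% CO2, seeded at 500 cells per well.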

[2] = Viability qHTS for spleen associated tyrosine kinase inhibitor (SYKi) drug resistant MV4-11 cells (AID 1963824); further: nearly all actives have a fitted effect of over 35% in size
In short: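 SYK inhibitor-resistant MV4-11 AML cells, 500 per well, added to predispensed compounds and incubated 72 hr at 37 C, 5% CO2. Viability measured by CellTiter-Glo luminescence after 10 min at room temperature.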

[3] = Cellular viability qHTS for adrenocortical cancer (ACC) cell line SW-13 (AID 1963989); conditions: SW-13 ACC cells viability, CellTiter-Glo, 48 h; activity (max response): stronger effect = lower value; further: nearly all actives have a fitted effect of over 65% in size;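 on activity (max response): cells grown in serum-free medium with ITS supplement; on the % scale 0 is the no-effect control and ±100 the full control effect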
In short: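 Luminescent ATP read-out (CellTiter-Glo, 20 min at room temperature) measured metabolically competent SW-13 cells after 48 h compound treatment. Final concentrations spanned up to 46 uM; bortezomib served as positive control.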
Potency means the concentration at half of the fitted maximal effect; tags describe the fitted curve by direction and shape.

Row | Compound | Potency [1] | Potency [2] | Potency [3] | activity (max response) [3]
1 | NNC(=O)CP(=O)(c1ccccc1)c1ccccc1 | inconclusive: 0.0944 µM [cytotoxic, full curve, poor fit] | inconclusive: 0.168 µM [cytotoxic, full curve] | inconclusive: 18.4 µM [cytotoxic, single point] | –
2 | CCCC(C(=O)OCCN(CC)CC)(c1ccccc1)c1ccccc1 | inconclusive: 23.7 µM [cytotoxic, partial curve] | inconclusive: 21.1 µM [cytotoxic, partial curve, poor fit] | active: 20.6 µM | –
3 | Cn1ncnc1[C@H]1c2n[nH]c(=O)c3cc(F)cc(c23)N[C@@H]1c1ccc(F)cc1 | inconclusive: 1.12 µM [cytotoxic, full curve] and inconclusive: 1.86 µM [cytotoxic, full curve] | inconclusive: 1.78 µM [cytotoxic, partial curve] and inconclusive: 934 nM [cytotoxic, full curve] | inconclusive: 4.47 µM [cytotoxic, partial curve] | –
4 | Cc1cc(=O)[nH]c(=S)[nH]1 | inactive | inactive | inconclusive: 16.4 µM [cytotoxic, single point] | –
5 | C=CCN1CCc2nc(N)sc2CC1 | inactive | inactive | – | inactive: 1.2%
6 | Cc1cccc(Oc2cnc(=O)[nH]c2)c1 | inconclusive: 0.82 µM [cytotoxic, partial curve, poor fit] | inactive | – | inactive: 6.68%
7 | CCc1oc2ccccc2c1C(=O)c1cc(I)c(O)c(I)c1 | inconclusive: 0.0017 µM [rising, full curve, poor fit] | inconclusive: 0.0009 µM | active: 5.8 µM | –
8 | Nc1ncn([C@@H]2O[C@H](CO)[C@@H](O)[C@H]2O)c(=O)n1 | inconclusive: 33.5 µM [cytotoxic, single point] and inconclusive: 4.68 µM [cytotoxic, full curve] | inconclusive: 11.9 µM [cytotoxic, partial curve] | inconclusive: 29.1 µM [cytotoxic, single point] and inconclusive: 35.5 µM [cytotoxic, partial curve, poor fit] | –
9 | O=C1Nc2ccc(I)cc2/C1=C/c1cc(Br)c(O)c(Br)c1 | inconclusive: 11.6 µM [cytotoxic, partial curve] | active: 14.8 µM and inconclusive: 10.3 µM [cytotoxic, partial curve] | inconclusive: 14.1 µM [cytotoxic, partial curve, poor fit] | –
10 | CCCn1cnc2c1c(=O)n(CCCCC(C)=O)c(=O)n2C | inactive | inactive | inconclusive: 18.4 µM [cytotoxic, single point] | –
11 | COc1ccc(CNC(=O)Nc2ncc([N+](=O)[O-])s2)cc1 | active: 9.34 µM | active: 13 µM | active: 25.1 µM | –
12 | CC(=O)N1CCC(Nc2cc(C(=O)NC[C@H](O)CN3CCc4ccccc4C3)ncn2)CC1 | inconclusive: 0.0417 µM [cytotoxic, full curve, poor fit] | inconclusive: 5.25 µM [cytotoxic, partial curve, poor fit] | inconclusive: 6.31 µM [cytotoxic, partial curve, poor fit] | –
13 | Fc1ccc(C(c2ccc(F)cc2)N2CCNCC2)cc1 | inconclusive: 13.3 µM [cytotoxic, partial curve] | inconclusive: 13.3 µM [cytotoxic, partial curve, poor fit] | – | inactive: 4.07%
14 | C[C@@]12CCC[C@H]1[C@@H]1CC[C@H]3C[C@@H](O)CC[C@]3(C)[C@H]1CC2 | inconclusive: 9.44 µM [cytotoxic, partial curve] | inconclusive: 11.9 µM [cytotoxic, partial curve] | – | inactive: -0.85%
15 | O=C(NCC(=O)N1CC[C@H](NC2CCC(O)(c3ccc(-c4ncccn4)cn3)CC2)C1)c1cccc(C(F)(F)F)c1 (stereo not given in full) | inconclusive: 18.4 µM [cytotoxic, single point] and inconclusive: 14.8 µM [cytotoxic, partial curve] | inconclusive: 9.2 µM [cytotoxic, partial curve, poor fit] and inconclusive: 14.8 µM [cytotoxic, partial curve] | inconclusive: 31.6 µM [cytotoxic, partial curve, poor fit] | –

— PubChem BioAssay (NCATS)
